Source: US20240376225A1 (CHILDREN S MEDICAL CENTER, published 2024)

T1: human CD21 protein (human, UniProt P20023 21-971, limits assumed)
T1 construct: the Biacore set-up is not described; also called huCD21; CR2
T1 sequence (looked up): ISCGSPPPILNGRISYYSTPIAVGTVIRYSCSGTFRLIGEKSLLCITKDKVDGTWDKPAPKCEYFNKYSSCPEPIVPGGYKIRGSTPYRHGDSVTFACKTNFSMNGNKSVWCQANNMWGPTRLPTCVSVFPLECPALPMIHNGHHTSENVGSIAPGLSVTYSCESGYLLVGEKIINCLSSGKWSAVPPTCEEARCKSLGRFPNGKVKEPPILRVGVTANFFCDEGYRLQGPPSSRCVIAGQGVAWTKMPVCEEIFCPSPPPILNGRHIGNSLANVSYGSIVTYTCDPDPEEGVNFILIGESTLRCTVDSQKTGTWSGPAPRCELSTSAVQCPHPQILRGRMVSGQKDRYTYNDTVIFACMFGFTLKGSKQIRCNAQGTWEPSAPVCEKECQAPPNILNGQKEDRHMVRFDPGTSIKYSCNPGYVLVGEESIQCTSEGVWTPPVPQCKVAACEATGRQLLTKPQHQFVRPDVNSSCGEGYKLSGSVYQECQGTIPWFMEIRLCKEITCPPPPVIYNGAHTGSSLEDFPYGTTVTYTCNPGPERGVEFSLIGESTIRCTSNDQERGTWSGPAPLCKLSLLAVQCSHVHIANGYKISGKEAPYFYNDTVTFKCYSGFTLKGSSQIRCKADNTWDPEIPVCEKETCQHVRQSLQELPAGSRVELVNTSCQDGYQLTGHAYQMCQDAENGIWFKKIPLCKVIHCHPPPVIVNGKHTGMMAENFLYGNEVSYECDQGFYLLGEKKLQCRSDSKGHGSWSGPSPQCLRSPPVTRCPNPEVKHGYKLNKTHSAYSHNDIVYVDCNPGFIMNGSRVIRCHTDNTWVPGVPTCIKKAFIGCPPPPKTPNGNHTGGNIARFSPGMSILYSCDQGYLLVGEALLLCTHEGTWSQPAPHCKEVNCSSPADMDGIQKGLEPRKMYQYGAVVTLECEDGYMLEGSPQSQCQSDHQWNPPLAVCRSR

T2: human CD21 on Raji B cells or primary B cells (human, UniProt P20023 21-1033)
T2 sequence (looked up): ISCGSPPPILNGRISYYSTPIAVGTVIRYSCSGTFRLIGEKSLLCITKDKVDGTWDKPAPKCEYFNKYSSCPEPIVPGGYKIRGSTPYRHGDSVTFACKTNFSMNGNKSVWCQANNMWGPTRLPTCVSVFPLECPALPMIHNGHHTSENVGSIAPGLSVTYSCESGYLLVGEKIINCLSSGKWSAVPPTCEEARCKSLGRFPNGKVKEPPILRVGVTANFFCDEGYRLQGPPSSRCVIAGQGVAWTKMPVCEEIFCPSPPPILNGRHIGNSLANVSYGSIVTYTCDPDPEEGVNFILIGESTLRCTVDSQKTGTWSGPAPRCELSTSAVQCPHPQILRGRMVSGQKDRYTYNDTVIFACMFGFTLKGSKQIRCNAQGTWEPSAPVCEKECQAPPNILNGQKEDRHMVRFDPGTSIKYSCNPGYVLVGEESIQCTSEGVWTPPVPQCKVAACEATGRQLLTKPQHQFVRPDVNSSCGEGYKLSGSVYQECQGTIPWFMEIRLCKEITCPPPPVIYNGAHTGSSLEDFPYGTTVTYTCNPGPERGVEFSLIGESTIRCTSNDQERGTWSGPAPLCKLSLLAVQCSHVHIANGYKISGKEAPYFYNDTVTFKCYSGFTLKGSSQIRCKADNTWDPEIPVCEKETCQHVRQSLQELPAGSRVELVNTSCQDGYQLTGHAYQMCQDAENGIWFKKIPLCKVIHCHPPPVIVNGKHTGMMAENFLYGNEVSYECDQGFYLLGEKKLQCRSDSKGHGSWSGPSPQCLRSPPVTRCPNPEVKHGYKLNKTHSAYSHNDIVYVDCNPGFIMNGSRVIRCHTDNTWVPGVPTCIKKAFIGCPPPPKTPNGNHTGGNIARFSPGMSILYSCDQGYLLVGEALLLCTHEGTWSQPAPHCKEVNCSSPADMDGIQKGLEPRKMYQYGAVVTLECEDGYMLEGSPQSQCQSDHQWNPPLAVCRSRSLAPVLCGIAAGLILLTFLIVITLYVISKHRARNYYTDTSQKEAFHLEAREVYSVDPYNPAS


Tests used:
human CD21 protein [1] = biological target: T1, human CD21 protein; assay: affinity KD; method not restated (Biacore elsewhere)
[2] = biological target: T2, human CD21 on Raji B cells or primary B …; assay: cell-based or functional assay
human CD21 protein [3] = biological target: T1, human CD21 protein; assay: affinity KD; method not restated (Biacore elsewhere); remark: listed apart in the source
[4] = biological target: T2, human CD21 on Raji B cells or primary B …; assay: cell-based or functional assay; remark: listed apart in the source

Kd (human CD21 protein [1])	pAKT inhibition, IC50, nM; Primary B cells [2]	Kd (human CD21 protein [3])	pAKT inhibition, IC50, nM; Primary B cells [4]	Binder
0.013 nM	6.31 nM	0.013 nM	6.31 nM	Ab652 (antibody, human IgG1, kappa, IgG1; same as Ab658 but without the C-terminal Lys on the heavy chain) heavy: QVQLVQSGAEVKKPGSSVKVSCKASGGELSSYAISWVRQAPGQGLEWMGRIIPILGIANYAQKFQGRVTITADKSTSTAYMELSSLRSEDTAVYYCAREEDISGYYQDWGQGTLVTVSSASTKGPSVFPLAPSSKSTSGGTAALGCLVKDYFPEPVTVSWNSGALTSGVHTFPAVLQSSGLYSLSSVVTVPSSSLGTQTYICNVNHKPSNTKVDKKVEPKSCDKTHTCPPCPAPEAAGAPSVFLFPPKPKDTLMISRTPEVTCVVVDVSHEDPEVKFNWYVDGVEVHNAKTKPREEQYNSTYRVVSVLTVLHQDWLNGKEYKCKVSNKALPAPIEKTISKAKGQPREPQVYTLPPSREEMTKNQVSLTCLVKGFYPSDIAVEWESNGQPENNYKTTPPVLDSDGSFFLYSKLTVDKSRWQQGNVFSCSVMHEALHNHYTQKSLSLSPG light: EIVMTQSPATLSVSPGERATLSCRAGQSISSYLAWYQQKPGQAPRLLIYDASSRATGIPARFSGSGSGTEFTLTISSLQSEDFAVYYCQQYEYWYSFGQGTKLEIKRTVAAPSVFIFPPSDEQLKSGTASVVCLLNNFYPREAKVQWKVDNALQSGNSQESVTEQDSKDSTYSLSSTLTLSKADYEKHKVYACEVTHQGLSSPVTKSFNRGEC
0.011 nM	1.66 nM	0.011 nM	1.66 nM	Ab658 (antibody, human IgG1, kappa, fully human IgG1 (effector-less 3A mutant); Ab652 with C-terminal Lys on the heavy chain; also called Ab652 + CTK; Ab658 = Ab652 + CTK) heavy: QVQLVQSGAEVKKPGSSVKVSCKASGGELSSYAISWVRQAPGQGLEWMGRIIPILGIANYAQKFQGRVTITADKSTSTAYMELSSLRSEDTAVYYCAREEDISGYYQDWGQGTLVTVSSASTKGPSVFPLAPSSKSTSGGTAALGCLVKDYFPEPVTVSWNSGALTSGVHTFPAVLQSSGLYSLSSVVTVPSSSLGTQTYICNVNHKPSNTKVDKKVEPKSCDKTHTCPPCPAPEAAGAPSVFLFPPKPKDTLMISRTPEVTCVVVDVSHEDPEVKFNWYVDGVEVHNAKTKPREEQYNSTYRVVSVLTVLHQDWLNGKEYKCKVSNKALPAPIEKTISKAKGQPREPQVYTLPPSREEMTKNQVSLTCLVKGFYPSDIAVEWESNGQPENNYKTTPPVLDSDGSFFLYSKLTVDKSRWQQGNVFSCSVMHEALHNHYTQKSLSLSPGK light: EIVMTQSPATLSVSPGERATLSCRAGQSISSYLAWYQQKPGQAPRLLIYDASSRATGIPARFSGSGSGTEFTLTISSLQSEDFAVYYCQQYEYWYSFGQGTKLEIKRTVAAPSVFIFPPSDEQLKSGTASVVCLLNNFYPREAKVQWKVDNALQSGNSQESVTEQDSKDSTYSLSSTLTLSKADYEKHKVYACEVTHQGLSSPVTKSFNRGEC

Where two headings read alike, the source gives them in different places.
